Reference: paper PMC4336329 (PLoS ONE, 2015)
Among all 310,000 compounds or so, about 14,000 (4.5%) showed an effect of 50% or more. Effects have a minus sign here. The list shows a part of the results.

Molecular target: human ether-à-go-go-related gene (hERG) potassium channel (human, UniProt Q12809)
Assay: primary screen, population patch clamp on CHO cells stably expressing hERG
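Also: peak tail current of the secondary pulse compared with the same well before compound.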

Sequence of human ether-à-go-go-related gene (hERG) potassium channel (Q12809 whole entry, looked up): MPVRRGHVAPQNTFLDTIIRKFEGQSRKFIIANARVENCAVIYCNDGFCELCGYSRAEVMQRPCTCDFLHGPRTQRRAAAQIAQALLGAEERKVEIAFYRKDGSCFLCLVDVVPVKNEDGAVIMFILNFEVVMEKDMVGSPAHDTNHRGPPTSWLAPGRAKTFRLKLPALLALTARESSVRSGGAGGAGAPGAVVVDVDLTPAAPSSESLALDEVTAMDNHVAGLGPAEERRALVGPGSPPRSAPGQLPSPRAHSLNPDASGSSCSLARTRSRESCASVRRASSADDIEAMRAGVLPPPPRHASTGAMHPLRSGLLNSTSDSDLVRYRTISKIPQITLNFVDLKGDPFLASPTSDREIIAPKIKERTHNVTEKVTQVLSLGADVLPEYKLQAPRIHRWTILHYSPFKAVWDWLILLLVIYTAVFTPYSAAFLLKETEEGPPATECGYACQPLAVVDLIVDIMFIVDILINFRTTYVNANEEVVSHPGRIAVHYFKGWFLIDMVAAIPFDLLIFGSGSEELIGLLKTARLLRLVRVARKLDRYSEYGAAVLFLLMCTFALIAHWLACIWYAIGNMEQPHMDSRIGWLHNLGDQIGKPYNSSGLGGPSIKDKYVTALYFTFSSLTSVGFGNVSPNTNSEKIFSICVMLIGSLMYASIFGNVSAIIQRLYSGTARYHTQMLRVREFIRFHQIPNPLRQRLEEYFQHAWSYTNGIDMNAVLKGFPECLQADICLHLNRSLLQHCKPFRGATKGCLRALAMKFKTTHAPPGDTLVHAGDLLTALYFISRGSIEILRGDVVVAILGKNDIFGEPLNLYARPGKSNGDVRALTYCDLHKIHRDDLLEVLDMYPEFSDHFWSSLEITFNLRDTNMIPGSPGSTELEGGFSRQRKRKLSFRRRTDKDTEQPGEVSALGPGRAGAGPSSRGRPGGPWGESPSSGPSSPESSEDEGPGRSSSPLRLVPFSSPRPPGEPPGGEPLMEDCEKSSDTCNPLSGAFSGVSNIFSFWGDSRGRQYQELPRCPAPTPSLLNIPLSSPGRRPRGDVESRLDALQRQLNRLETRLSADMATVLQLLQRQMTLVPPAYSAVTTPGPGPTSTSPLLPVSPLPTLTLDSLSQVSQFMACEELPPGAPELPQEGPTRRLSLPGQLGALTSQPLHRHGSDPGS

Row | Structure (SMILES) | hERG current change (%, negative = inhibition) at 10uM [%]
1 | CCCC1(CCC)C(=O)NC(=NCCc2ccc(OC)c(OC)c2)NC1=O | 13.4
2 | CCOC(=O)C1CCN(C(=O)c2cccc(N3C(=O)NC4CC3(C)Oc3ccc(C)cc34)c2)CC1 (centres unmarked) | -44.6
3 | Cc1c(C(=O)N2CCN(C3CCS(=O)(=O)C3)CC2)oc2c(F)cccc12 (centres unmarked) | -9.8
4 | CCCCN(C)C1CCN(C(=S)Nc2ccc(OC)cc2)CC1 | -26
5 | NNC(=O)CSc1nnnn1-c1ccccc1 | -22.3
6 | CN1CCN(C(c2cccc(C(F)(F)F)c2)c2nnnn2C(C)(C)C)CC1 (centres unmarked) | 2.28
7 | Oc1ccc(-c2nccc(-c3ccc(Br)cc3)n2)cc1 | 18.7
8 | CC(C)CCN1C(=O)c2ccc(C(=O)NCc3ccco3)cc2C1=O | -13.3
9 | COc1cccc(S(=O)(=O)Nc2ccc3sc(C)nc3c2)c1 | -14.2
10 | Cc1ccc(C2c3c(C)nn(-c4ccc([N+](=O)[O-])cc4)c3N=C3C(=O)Nc4ccccc4N32)cc1 (centres unmarked) | 2.32
11 | O=C1C2C3C=CC(C3)C2C(=O)N1c1cccnc1 (centres unmarked) | 12.9
12 | COc1cc(C(=O)NCc2ccc3c(c2)OCO3)ccc1OCc1c(C)noc1C | -2
13 | CC1CN(C2CCN(S(=O)(=O)Cc3ccccc3)CC2)CC(C)O1 (centres unmarked) | -23.2
14 | CC(C)c1ccc2oc(=O)cc(CN3CCN(Cc4ccccc4)CC3)c2c1 | 17.5
15 | O=C(CCc1n[nH]c(=O)[nH]c1=O)N/N=C/c1ccc(Br)o1 | 16.2
16 | O=C(Nc1cccc(C(=O)Nc2ccccc2F)c1)c1ccccc1 | 4.84
17 | CCCSc1cc(N2CCCC2)nc(-c2ccccc2)n1 | 15.5
18 | COc1ccc(CNC(C)C23CC4CC(CC(C4)C2)C3)c(OC)c1OC.Cl (centres unmarked) | -5.24
19 | CCNS(=O)(=O)c1ccc(CCC(=O)N2CCN(c3cccc(Cl)c3)CC2)cc1 | -32.7
20 | C=C(C)CNC(=S)N/N=C/C1=CCC2CC1C2(C)C (centres unmarked) | -0.625
21 | Cc1ccc(S(=O)(=O)Nc2cc(C(=O)Nc3cc(C)cc(C)c3)ccc2Cl)cc1 | -5.44
22 | c1cncc(-c2nc(NCC3COc4ccccc4O3)c3ccccc3n2)c1 (centres unmarked) | -16
23 | CCn1cc(C(=O)NCc2ccccc2)c(=O)c2cc(F)c(N3CCN(C(=O)c4ccco4)CC3)cc21 | -39.6
24 | O=C(Cc1cccs1)N(Cc1ccco1)C1(C(=O)NC2CCCC2)CCCCC1 | -14.3
25 | O=C(NCc1ccco1)c1cc2cc3ccc(Cl)cc3nc2o1 | 4.32
26 | Cc1cccc(-n2c(C)cc(/C=C3\C(=N)N4N=C(CC(C)C)SC4=NC3=O)c2C)c1 | 0.695
27 | O=C(NCCc1ccccc1)C1CCN(C2CCN(Cc3ccc(CO)o3)CC2)CC1 | 18.2

Row | Structure (SMILES) | hERG current change (%, negative = inhibition) at 10uM [%]
28 | Cn1c(CC(=O)Nc2ccccc2)nnc1SCC(=O)NC1=NCCS1 | 12.7
29 | Cc1ccc(C(=O)N(Nc2nc3ccccc3s2)C(=O)c2ccc(C)cc2)cc1 | 11.1
30 | O=C(Cc1ccsc1)N1CCN(S(=O)(=O)c2cccc(F)c2)CC1 | -3.85
31 | Cc1ccc(-c2cc(-c3ccccc3)c(C#N)c(N)n2)o1 | 3.29
32 | COc1ccc([C@H]2/C=C\CN(S(=O)(=O)/C=C/c3ccccc3)[C@@H](C)C(=O)N2Cc2ccc(F)cc2)cc1 | -47.7
33 | CCn1nc(C)c(CNC(=O)CC2C(=O)NCCN2Cc2ccc(C)o2)c1C (centres unmarked) | -68.4
34 | COc1cc(OC)cc(-c2nnc(SCC(=O)N3CCCc4ccccc43)o2)c1 | -7.63
35 | C1=NCCc2c1[nH]c1ccccc21.[O-][Cl+3]([O-])([O-])O | -14.8
36 | Cc1ccc(C(=O)c2cncc(Br)c2)cc1 | -3.32
37 | Cc1ccc(-n2c(Cc3cccn3C)nnc2SCC(=O)Nc2nnc(C)s2)cc1 | -13.6
38 | COC(=O)C1(C(=O)OC)NOC2C(=O)N(c3ccc(Cl)cc3Cl)C(=O)C21 (centres unmarked) | -3.03
39 | O=C(Nc1ccccn1)c1ccc(S(=O)(=O)c2ccc(Cl)cc2)cc1 | 7.85
40 | Cc1c(NC(=O)CN2C(=O)c3ccccc3S2(=O)=O)c(=O)n(-c2ccccc2)n1C | 9.79
41 | Cc1ccsc1/C=C/C1=Cc2c(sc(NC(=O)CSc3n[nH]c(N)n3)c2C#N)C(C)(C)C1 | 2.34
42 | CCOc1ccc(NC(=O)CN(c2ccc(OC)cc2)S(=O)(=O)c2cccs2)cc1 | 8.75
43 | CC(C)CC1Nc2ncnc(N3CCOCC3)c2N(Cc2ccc(Br)cc2)C1=O.O=C(O)C(F)(F)F (centres unmarked) | -32.5
44 | O=C(CNS(=O)(=O)c1ccc(F)cc1)N1CCCC1 | 12
45 | O=C(Nc1ccc(Cl)cc1)[C@@H]1[C@@H]2C(=O)N(c3ccc(Cl)cc3)C(=O)[C@@H]2[C@H]2C=CC=NN21 | -24.1
46 | O=C(O)c1cc(-c2ccc(/C=N/NC(=S)Nc3ccccc3)o2)ccc1Cl | 11.9
47 | CC(C)(C)C(=O)/C=C/c1ccc(Oc2ccccc2)cc1 | 11.3
48 | O=C(O)/C(=C\c1c(C(=O)O)[nH]c2cc(Cl)cc(Cl)c12)c1ccccc1 | 13.3
49 | O=C(Nc1nc2c(F)cc(F)cc2s1)C1CC(=O)N(Cc2ccco2)C1 (centres unmarked) | -38.4
50 | CC(C)COc1cccc(-c2cc(C(=O)N/N=C/c3ccncc3)c3ccccc3n2)c1 | 6.44
51 | COc1cc(C#N)ccc1OC(=O)Cc1cc(OC)c(OC)c(OC)c1 | 16.3
52 | Cc1cccc(C)c1-n1c(C)cc(/C=N\NC(=O)CC(=O)NC2CCCCC2)c1C | -3.61
53 | Cc1cc(/C=C2/NC(=O)N(c3ccccc3)C2=O)c(C)n1-c1cccnc1 | -41.1
